Not every detail of the peptide structures is certain; ends, links or a residue may be inferred. Some compounds share one wording; it may come from a single statement. Numbered stars: 1 amine (or outer) side, 2 acyl side, 3 side chain; on linkers, the order of the positions; unused ones are H or OH. Square brackets hold non-standard residues; d marks the D form. Peptide text beside a SMILES is read from it. * marks the point of attachment. Phe(4-NH(5-NH2triazol-3-yl)) = Nc1nc(Nc2ccc(C[C@H](N)C(=O)O)cc2)n[nH]1; dLys(Nε-C(NCN)NHBu) = CCCCNC(=NC#N)NCCCC[C@@H](N)C(=O)O; X1 = Nc1nc(Nc2ccc(C[C@@H](N[*:1])C(=O)[*:2])cc2)n[nH]1; X13 = N#CN=C(NCCCC[C@@H](N[*:1])C(=O)[*:2])NCc1ccccn1; X28 = N#CN=C(NCCC[C@@H](N[*:1])C(=O)[*:2])NCc1ccccn1; X23 = N#CN=C1NCCOCCN1CCCC[C@@H](N[*:1])C(=O)[*:2]; X3 = CCNC(=NC#N)NCCCC[C@@H](N[*:1])C(=O)[*:2]; X2 = CCNC(=NC#N)NCCCC[C@H](N[*:1])C(=O)[*:2]; Triazol3yl(1,2,4-5-NH2) = Nc1nc(*)n[nH]1; dPhe(4-Cl) = N[C@H](Cc1ccc(Cl)cc1)C(=O)O; d2Nal = N[C@H](Cc1ccc2ccccc2c1)C(=O)O; Lys(iPr) = CC(C)NCCCC[C@H](N)C(=O)O; d3Pal = N[C@H](Cc1cccnc1)C(=O)O; NMeL = CN[C@@H](CC(C)C)C(=O)O; Nicotinoyl = O=C(c1cccnc1)*; dOrn = NCCC[C@@H](N)C(=O)O; Orn = NCCC[C@H](N)C(=O)O
System: mature female Sprague-Dawley rats
Test: in vivo test of effectiveness to prevent ovulation in female rats
Parameters: species or system rat
Details: for Rats Ovulating: injected at about noon on the day of proestrus, rats ovulating/rats treated; for effectiveness to prevent ovulation of female mammals: low dosages, worded as 'considered'

## CC(=O)N[C@H](Cc1ccc2ccccc2c1)C(=O)N[C@H](Cc1ccc(Cl)cc1)C(=O)N[C@H](CCCNC(=NC#N)NCc1ccccn1)C(=O)N[C@@H](CO)C(=O)N[C@@H](Cc1ccc(O)cc1)C(=O)N[C@H](Cc1ccc2ccccc2c1)C(=O)N[C@@H](CC(C)C)C(=O)N[C@@H](CCCCNC(C)C)C(=O)N1CCC[C@H]1C(=O)N[C@H](C)C(N)=O [Peptide 125] (Ac-[d2Nal][dPhe(4-Cl)][X28]SY[d2Nal]L[Lys(iPr)]P[dA]-NH2)
Dosage 2.5 micrograms
  Rats Ovulating: 3/7

## CCCCNC(=NC#N)NCCCC[C@@H](NC(=O)[C@H](Cc1ccc(O)cc1)NC(=O)[C@H](CO)NC(=O)[C@@H](CCCCNC(=NC#N)NCCCC)NC(=O)[C@@H](Cc1ccc(Cl)cc1)NC(=O)[C@@H](Cc1ccc2ccccc2c1)NC(C)=O)C(=O)N[C@@H](CC(C)C)C(=O)N[C@@H](CCCCNC(C)C)C(=O)N1CCC[C@H]1C(=O)N[C@H](C)C(N)=O [Peptide 122A] (Ac-[d2Nal][dPhe(4-Cl)][dLys(Nε-C(NCN)NHBu)]SY[dLys(Nε-C(NCN)NHBu)]L[Lys(iPr)]P[dA]-NH2)
Dosage 2.5 micrograms
  Rats Ovulating: 5/6
Dosage 5.0 micrograms
  Rats Ovulating: 0/6

## CC(=O)N[C@H](Cc1ccc2ccccc2c1)C(=O)N[C@H](Cc1ccc(Cl)cc1)C(=O)N[C@H](Cc1cccnc1)C(=O)N[C@@H](CO)C(=O)N[C@H]1CCCCNC(=NC#N)NCCCC[C@@H](C(=O)N2CCC[C@H]2C(=O)N[C@H](C)C(N)=O)NC(=O)[C@H](CC(C)C)N(C)C(=O)[C@@H](Cc2cccnc2)NC1=O [Peptide 145]
  effectiveness to prevent ovulation of female mammals: effective to prevent ovulation of female mammals at low dosages

## CC(=O)N[C@H](Cc1ccc2ccccc2c1)C(=O)N[C@H](Cc1ccc(Cl)cc1)C(=O)N[C@H](Cc1cccnc1)C(=O)N[C@@H](CO)C(=O)N[C@@H](CCCCNc1n[nH]c(N)n1)C(=O)N[C@H](CCCCNc1n[nH]c(N)n1)C(=O)N[C@@H](CC(C)C)C(=O)N[C@@H](CCCCNC(C)C)C(=O)N1CCC[C@H]1C(=O)N[C@H](C)C(N)=O [Peptide 103B] (Ac-[d2Nal][dPhe(4-Cl)][d3Pal]SK(Triazol3yl(1,2,4-5-NH2))[dK](Triazol3yl(1,2,4-5-NH2))L[Lys(iPr)]P[dA]-NH2)
Dosage 0.5 micrograms
  Rats Ovulating: 7/8
Dosage 1.0 micrograms
  Rats Ovulating: 3/9
Dosage 2.5 micrograms
  Rats Ovulating: 0/7

## CC(=O)N[C@H](Cc1ccc2ccccc2c1)C(=O)N[C@H](Cc1ccc(Cl)cc1)C(=O)N[C@H](CCCCNC(=NC#N)NCc1ccccn1)C(=O)N[C@@H](CO)C(=O)N[C@@H](CCCNC(=N)N)C(=O)N[C@H](Cc1ccc2ccccc2c1)C(=O)N[C@@H](CC(C)C)C(=O)N[C@@H](CCCNC(=N)N)C(=O)N1CCC[C@H]1C(=O)N[C@H](C)C(N)=O [Peptide 120A] (Ac-[d2Nal][dPhe(4-Cl)][X13]SR[d2Nal]LRP[dA]-NH2)
Dosage 5.0 micrograms
  Rats Ovulating: 4/6

## CCNC(=NC#N)NCCCC[C@H](NC(=O)[C@H](CO)NC(=O)[C@@H](Cc1cccnc1)NC(=O)[C@@H](Cc1ccc(Cl)cc1)NC(=O)[C@@H](Cc1ccc2ccccc2c1)NC(C)=O)C(=O)N[C@H](CCCCNC(=NC#N)NCC)C(=O)N[C@@H](CC(C)C)C(=O)N[C@@H](CCCCNC(C)C)C(=O)N1CCC[C@H]1C(=O)N[C@H](C)C(N)=O [Peptide 10] (Ac-[d2Nal][dPhe(4-Cl)][d3Pal]S[X2][X3]L[Lys(iPr)]P[dA]-NH2)
Dosage 2.0 micrograms
  Rats Ovulating: 1/10
Dosage 2.5 micrograms
  Rats Ovulating: 5/8

## CC(=O)N[C@H](Cc1ccc2ccccc2c1)C(=O)N[C@H](Cc1ccc(Cl)cc1)C(=O)N[C@H](Cc1cccnc1)C(=O)N[C@@H](CO)C(=O)N[C@@H](CCCCNc1nc(N)n[nH]1)C(=O)N[C@H](CCCCNC(=O)c1cccnc1)C(=O)N[C@@H](CC(C)C)C(=O)N[C@@H](CCCCNC(C)C)C(=O)N1CCC[C@H]1C(=O)N[C@H](C)C(N)=O [Peptide 106A] (Ac-[d2Nal][dPhe(4-Cl)][d3Pal]SK(Triazol3yl(1,2,4-5-NH2))[dK](Nicotinoyl)L[Lys(iPr)]P[dA]-NH2)
Dosage 1.0 micrograms
  Rats Ovulating: 7/7
Dosage 2.0 micrograms
  Rats Ovulating: 0/5

## CC(=O)N[C@H](Cc1ccc2ccccc2c1)C(=O)N[C@H](Cc1ccc(Cl)cc1)C(=O)N[C@H](CCCCNC(=NC#N)NCc1ccccn1)C(=O)N[C@@H](CO)C(=O)N[C@@H](Cc1ccc(O)cc1)C(=O)N[C@H](Cc1cccnc1)C(=O)N[C@@H](CC(C)C)C(=O)N[C@@H](CCCCNC(C)C)C(=O)N1CCC[C@H]1C(=O)N[C@H](C)C(N)=O [Peptide 120] (Ac-[d2Nal][dPhe(4-Cl)][X13]SY[d3Pal]L[Lys(iPr)]P[dA]-NH2)
Dosage 1.0 micrograms
  Rats Ovulating: 6/7
Dosage 2.5 micrograms
  Rats Ovulating: 0/8

## CC(=O)N[C@H](Cc1ccc2ccccc2c1)C(=O)N[C@H](Cc1ccc(Cl)cc1)C(=O)N[C@H](CCCCNc1nc(N)n[nH]1)C(=O)N[C@@H](CO)C(=O)N[C@@H](CCCNC(=N)N)C(=O)N[C@H](Cc1ccc2ccccc2c1)C(=O)N[C@@H](CC(C)C)C(=O)N[C@@H](CCCNC(=N)N)C(=O)N1CCC[C@H]1C(=O)N[C@H](C)C(N)=O [Peptide 115] (Ac-[d2Nal][dPhe(4-Cl)][dK](Triazol3yl(1,2,4-5-NH2))SR[d2Nal]LRP[dA]-NH2)
Dosage 2.5 micrograms
  Rats Ovulating: 2/8

## CC(=O)N[C@H](Cc1ccc2ccccc2c1)C(=O)N[C@H](Cc1ccc(Cl)cc1)C(=O)N[C@H](Cc1ccc(Nc2n[nH]c(N)n2)cc1)C(=O)N[C@@H](CO)C(=O)N[C@@H](Cc1ccc(O)cc1)C(=O)N[C@H](Cc1cccnc1)C(=O)N[C@@H](CC(C)C)C(=O)N[C@@H](CCCCNC(C)C)C(=O)N1CCC[C@H]1C(=O)N[C@H](C)C(N)=O [Peptide 117B] (Ac-[d2Nal][dPhe(4-Cl)][X1]SY[d3Pal]L[Lys(iPr)]P[dA]-NH2)
Dosage 15 micrograms
  Rats Ovulating: 1/5

## CCNC(=O)[C@@H]1CCCN1C(=O)[C@H](CCCCNC(C)C)NC(=O)[C@H](CC(C)C)N(C)C(=O)[C@@H](Cc1ccc(Nc2n[nH]c(N)n2)cc1)NC(=O)[C@H](Cc1ccc(Nc2n[nH]c(N)n2)cc1)NC(=O)[C@H](CO)NC(=O)[C@@H](Cc1cccnc1)NC(=O)[C@@H](Cc1ccc(Cl)cc1)NC(=O)[C@@H](Cc1ccc2ccccc2c1)NC(C)=O [Peptide 125E] (Ac-[d2Nal][dPhe(4-Cl)][d3Pal]S[Phe(4-NH(5-NH2triazol-3-yl))][X1][NMeL][Lys(iPr)]P-NHEt)
Dosage 10 micrograms
  Rats Ovulating: 0/5

## CCNC(=O)[C@@H]1CCCN1C(=O)[C@H](CCCCNC(C)C)NC(=O)[C@H](CC(C)C)NC(=O)[C@@H](Cc1ccc(Nc2n[nH]c(N)n2)cc1)NC(=O)[C@H](Cc1ccc(Nc2n[nH]c(N)n2)cc1)NC(=O)[C@H](CO)NC(=O)[C@@H](Cc1cccnc1)NC(=O)[C@@H](Cc1ccc(Cl)cc1)NC(=O)[C@@H](Cc1ccc2ccccc2c1)NC(C)=O [Peptide 125D] (Ac-[d2Nal][dPhe(4-Cl)][d3Pal]S[Phe(4-NH(5-NH2triazol-3-yl))][X1]L[Lys(iPr)]P-NHEt)
C-terminus changed instead of D-Ala-NH2
  biological potency in vivo compared with the parent peptide: just slightly less biological potency than that reported in TABLE B for Peptide 103B
Dosage 1.0 micrograms
  Rats Ovulating: 8/9
Dosage 2.5 micrograms
  Rats Ovulating: 0/8

## CC(=O)N[C@H](Cc1ccc2ccccc2c1)C(=O)N[C@H](Cc1ccc(Cl)cc1)C(=O)N[C@H](Cc1cccnc1)C(=O)N[C@@H](CO)C(=O)N[C@@H](Cc1ccc(O)cc1)C(=O)N[C@H](CCCNC(=N)N)C(=O)N[C@@H](CC(C)C)C(=O)N[C@@H](CCCCNc1n[nH]c(N)n1)C(=O)N1CCC[C@H]1C(=O)N[C@H](C)C(N)=O [Peptide 32A] (Ac-[d2Nal][dPhe(4-Cl)][d3Pal]SY[dR]LK(Triazol3yl(1,2,4-5-NH2))P[dA]-NH2)
Dosage 1.0 micrograms
  Rats Ovulating: 5/10
Dosage 2.5 micrograms
  Rats Ovulating: 0/7
Dosage 5.0 micrograms
  Rats Ovulating: 0/6
Dosage 10 micrograms
  Rats Ovulating: 0/6

## CC(=O)N[C@H](Cc1ccc2ccccc2c1)C(=O)N[C@H](Cc1ccc(Cl)cc1)C(=O)N[C@H](Cc1cccnc1)C(=O)N[C@@H](CO)C(=O)N[C@@H](Cc1ccc(O)cc1)C(=O)N[C@H](CCCCN1CCOCCNC1=NC#N)C(=O)N[C@@H](CC(C)C)C(=O)N[C@@H](CCCCNC(C)C)C(=O)N1CCC[C@H]1C(=O)N[C@H](C)C(N)=O [Peptide 149] (Ac-[d2Nal][dPhe(4-Cl)][d3Pal]SY[X23]L[Lys(iPr)]P[dA]-NH2)
  effectiveness to prevent ovulation of female mammals: effective to prevent ovulation of female mammals at low dosages

## CC(=O)N[C@H](Cc1ccc2ccccc2c1)C(=O)N[C@H](Cc1ccc(Cl)cc1)C(=O)N[C@H](Cc1cccnc1)C(=O)N[C@@H](CO)C(=O)N[C@@H](CCCNc1n[nH]c(N)n1)C(=O)N[C@H](CCCNc1n[nH]c(N)n1)C(=O)N[C@@H](CC(C)C)C(=O)N[C@@H](CCCCNC(C)C)C(=O)N1CCC[C@H]1C(=O)N[C@H](C)C(N)=O [Peptide 103] (Ac-[d2Nal][dPhe(4-Cl)][d3Pal]S[Orn](Triazol3yl(1,2,4-5-NH2))[dOrn](Triazol3yl(1,2,4-5-NH2))L[Lys(iPr)]P[dA]-NH2)
Dosage 2.5 micrograms
  Rats Ovulating: 5/7

## CC(=O)N[C@H](Cc1ccc2ccccc2c1)C(=O)N[C@H](Cc1ccc(Cl)cc1)C(=O)N[C@H](Cc1cccnc1)C(=O)N[C@@H](CO)C(=O)N[C@H]1CCCNC(=NC#N)NCCCC[C@@H](C(=O)N2CCC[C@H]2C(=O)N[C@H](C)C(N)=O)NC(=O)[C@H](CC(C)C)NC(=O)[C@@H](Cc2c[nH]c3ccccc23)NC1=O [Peptide 146]
  effectiveness to prevent ovulation of female mammals: effective to prevent ovulation of female mammals at low dosages

## CC(=O)N[C@H](Cc1ccc2ccccc2c1)C(=O)N[C@H](Cc1ccc(Cl)cc1)C(=O)N[C@H](Cc1cccnc1)C(=O)N[C@@H](CO)C(=O)N[C@@H](CCCCNC(=O)c1cccnc1)C(=O)N[C@H](CCCCNc1nc(N)n[nH]1)C(=O)N[C@@H](CC(C)C)C(=O)N[C@@H](CCCCNC(C)C)C(=O)N1CCC[C@H]1C(=O)N[C@H](C)C(N)=O [Peptide 106B] (Ac-[d2Nal][dPhe(4-Cl)][d3Pal]SK(Nicotinoyl)[dK](Triazol3yl(1,2,4-5-NH2))L[Lys(iPr)]P[dA]-NH2)
Dosage 1.0 micrograms
  Rats Ovulating: 4/6
Dosage 2.5 micrograms
  Rats Ovulating: 0/6

## CC(=O)N[C@H](Cc1ccc2ccccc2c1)C(=O)N[C@H](Cc1ccc(Cl)cc1)C(=O)N[C@H](CCCCNc1nc(N)n[nH]1)C(=O)N[C@@H](CO)C(=O)N[C@@H](Cc1ccc(O)cc1)C(=O)N[C@H](CCCCNc1nc(N)n[nH]1)C(=O)N[C@@H](CC(C)C)C(=O)N[C@@H](CCCCNC(C)C)C(=O)N1CCC[C@H]1C(=O)N[C@H](C)C(N)=O [Peptide 113A] (Ac-[d2Nal][dPhe(4-Cl)][dK](Triazol3yl(1,2,4-5-NH2))SY[dK](Triazol3yl(1,2,4-5-NH2))L[Lys(iPr)]P[dA]-NH2)
Dosage 2.5 micrograms
  Rats Ovulating: 1/15
Dosage 5.0 micrograms
  Rats Ovulating: 0/6

Reference: patent publication US5296468A, “GnRH analogs” (The Salk Institute for Biological Studies, priority 1993, dated 1994)
